In the supplement of paper PMC8728848:
Some of the results follow.

What was measured:
Assay in all cases: glycan array binding signal (z-score within array); higher = stronger binding
Conditions in all cases: glycan notation: IUPAC condensed, linker removed
[1] = target: GlcNAc(b1-6)GalNAc
Procedure, shortened: (§1)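 The binding signal is a Z-score computed within each array and averaged over linkers. Arrays of the same protein sequence at different concentrations or buffers were also averaged together. Data originate from 3228 arrays in the Consortium for Functional Glycomics database, kept only where the protein sequence was available.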

[2] = target: GlcNAc3Prop(b1-4)GlcNAc
Procedure, shortened: as §1

[3] = target: Kdn(a2-3)Gal(b1-3)GlcNAc
Procedure, shortened: as §1

[4] = target: Kdn(a2-3)Gal(b1-4)GlcNAc
Procedure, shortened: as §1

[5] = target: Man(a1-2)Man(a1-2)Man(a1-3)Man
Procedure, shortened: as §1

[6] = target: Man(a1-2)Man(a1-2)Man(a1-6)[Man(a1-3)]Man
Procedure, shortened: as §1

[7] = target: Man(a1-2)Man(a1-3)Man
Procedure, shortened: as §1

[8] = target: Man(a1-2)Man(a1-3)[Man(a1-2)Man(a1-6)]Man
Procedure, shortened: as §1

[9] = target: Man(a1-2)Man(a1-3)[Man(a1-2)Man(a1-6)]Man(a1-6)[Man(a1-2)Man(a1-2)Man(a1-3)]Man
Procedure, shortened: as §1

[10] = target: Man(a1-2)Man(a1-3)[Man(a1-2)Man(a1-6)]Man(a1-6)[Man(a1-2)Man(a1-2)Man(a1-3)]Man(b1-4)GlcNAc(b1-4)GlcNAc
Procedure, shortened: as §1

[11] = target: Man(a1-2)Man(a1-3)[Man(a1-6)]Man(a1-6)[Man(a1-2)Man(a1-3)]Man(b1-4)GlcNAc(b1-4)GlcNAc
Procedure, shortened: as §1

[12] = target: Man(a1-2)Man(a1-6)[Man(a1-3)]Man(a1-6)[Man(a1-2)Man(a1-2)Man(a1-3)]Man
Procedure, shortened: as §1

[13] = target: Man(a1-2)Man(a1-6)[Man(a1-3)]Man(a1-6)[Man(a1-2)Man(a1-2)Man(a1-3)]Man(b1-4)GlcNAc(b1-4)GlcNAc
Procedure, shortened: as §1

[14] = target: Man(a1-3)[Man(a1-6)]Man
Procedure, shortened: as §1

[15] = target: Man(a1-3)[Man(a1-6)]Man(a1-6)[Man(a1-2)Man(a1-3)]Man(b1-4)GlcNAc(b1-4)GlcNAc
Procedure, shortened: as §1

[16] = target: Man(a1-3)[Man(a1-6)]Man(a1-6)[Man(a1-3)]Man
Procedure, shortened: as §1

[17] = target: Man(a1-3)[Man(a1-6)]Man(a1-6)[Man(a1-3)]Man(b1-4)GlcNAc(b1-4)GlcNAc
Procedure, shortened: as §1

[18] = target: Man(a1-3)[Man(a1-6)]Man(b1-4)GlcNAc(b1-4)GlcNAc
Procedure, shortened: as §1

[19] = target: Man(a1-6)Man
Procedure, shortened: as §1

[20] = target: Man(b1-4)GlcNAc
Procedure, shortened: as §1

[21] = target: Neu5Ac(a2-3)Gal
Procedure, shortened: as §1

[22] = target: Neu5Ac(a2-3)Gal(b1-3)GalNAc
Procedure, shortened: as §1

[23] = target: Neu5Ac(a2-3)Gal(b1-3)GalNAc(b1-3)Gal(a1-4)Gal(b1-4)Glc
Procedure, shortened: as §1

[24] = target: Neu5Ac(a2-3)Gal(b1-3)GalNAc(b1-3)Gal(b1-4)GlcNAc
Procedure, shortened: as §1

[25] = target: Neu5Ac(a2-3)Gal(b1-3)GalNAc(b1-4)[Neu5Ac(a2-3)]Gal(b1-4)Glc
Procedure, shortened: as §1

[26] = target: Neu5Ac(a2-3)Gal(b1-3)GalNAc6S
Procedure, shortened: as §1

[27] = target: Neu5Ac(a2-3)Gal(b1-3)GlcNAc
Procedure, shortened: as §1

[28] = target: Neu5Ac(a2-3)Gal(b1-3)GlcNAc(b1-3)Gal(b1-3)GlcNAc
Procedure, shortened: as §1

[29] = target: Neu5Ac(a2-3)Gal(b1-3)GlcNAc6S
Procedure, shortened: as §1

[30] = target: Neu5Ac(a2-3)Gal(b1-3)[Fuc(a1-4)]GlcNAc
Procedure, shortened: as §1

[31] = target: Neu5Ac(a2-3)Gal(b1-3)[Fuc(a1-4)]GlcNAc(b1-3)Gal(b1-4)[Fuc(a1-3)]GlcNAc
Procedure, shortened: as §1

[32] = target: Neu5Ac(a2-3)Gal(b1-3)[Neu5Ac(a2-3)Gal(b1-4)]GlcNAc
Procedure, shortened: as §1

[33] = target: Neu5Ac(a2-3)Gal(b1-3)[Neu5Ac(a2-6)]GalNAc
Procedure, shortened: as §1

[34] = target: Neu5Ac(a2-3)Gal(b1-4)Glc
Procedure, shortened: as §1

[35] = target: Neu5Ac(a2-3)Gal(b1-4)GlcNAc
Procedure, shortened: as §1

[36] = target: Neu5Ac(a2-3)Gal(b1-4)GlcNAc(b1-2)Man(a1-3)[GlcNAc(b1-2)Man(b1-4)GlcNAc(b1-2)Man(a1-6)]Man(b1-4)GlcNAc(b1-4)GlcNAc
Procedure, shortened: as §1

[37] = target: Neu5Ac(a2-3)Gal(b1-4)GlcNAc(b1-2)Man(a1-3)[Neu5Ac(a2-6)Gal(b1-4)GlcNAc(b1-2)Man(a1-6)]Man(b1-4)GlcNAc(b1-4)GlcNAc
Procedure, shortened: as §1

[38] = target: Neu5Ac(a2-3)Gal(b1-4)GlcNAc(b1-3)Gal(b1-3)GlcNAc
Procedure, shortened: as §1

[39] = target: Neu5Ac(a2-3)Gal(b1-4)GlcNAc(b1-3)Gal(b1-4)GlcNAc
Procedure, shortened: as §1

[40] = target: Neu5Ac(a2-3)Gal(b1-4)GlcNAc(b1-3)Gal(b1-4)GlcNAc(b1-3)Gal(b1-4)GlcNAc
Procedure, shortened: as §1

[41] = target: Neu5Ac(a2-3)Gal(b1-4)GlcNAc(b1-3)Gal(b1-4)[Fuc(a1-3)]GlcNAc
Procedure, shortened: as §1

[42] = target: Neu5Ac(a2-3)Gal(b1-4)GlcNAc(b1-6)[Gal(b1-3)]GalNAc
Procedure, shortened: as §1

[43] = target: Neu5Ac(a2-3)Gal(b1-4)GlcNAc(b1-6)[Neu5Ac(a2-3)Gal(b1-3)]GalNAc
Procedure, shortened: as §1

[44] = target: Neu5Ac(a2-3)Gal(b1-4)GlcNAc6S
Procedure, shortened: as §1

[45] = target: Neu5Ac(a2-3)Gal(b1-4)[Fuc(a1-3)]GlcNAc
Procedure, shortened: as §1

[46] = target: Neu5Ac(a2-3)Gal(b1-4)[Fuc(a1-3)]GlcNAc(b1-3)Gal
Procedure, shortened: as §1

[47] = target: Neu5Ac(a2-3)Gal(b1-4)[Fuc(a1-3)]GlcNAc(b1-3)Gal(b1-4)GlcNAc
Procedure, shortened: as §1

[48] = target: Neu5Ac(a2-3)Gal(b1-4)[Fuc(a1-3)]GlcNAc(b1-3)Gal(b1-4)[Fuc(a1-3)]GlcNAc(b1-3)Gal(b1-4)[Fuc(a1-3)]GlcNAc
Procedure, shortened: as §1

[49] = target: Neu5Ac(a2-3)Gal(b1-4)[Fuc(a1-3)]GlcNAc(b1-6)[Gal(b1-3)]GalNAc
Procedure, shortened: as §1

[50] = target: Neu5Ac(a2-3)Gal(b1-4)[Fuc(a1-3)]GlcNAc6S
Procedure, shortened: as §1

[51] = target: Neu5Ac(a2-3)Gal6S(b1-4)GlcNAc
Procedure, shortened: as §1

[52] = target: Neu5Ac(a2-3)Gal6S(b1-4)[Fuc(a1-3)]GlcNAc
Procedure, shortened: as §1

[53] = target: Neu5Ac(a2-3)GalNAc
Procedure, shortened: as §1

[54] = target: Neu5Ac(a2-3)GalNAc(b1-4)GlcNAc
Procedure, shortened: as §1

[55] = target: Neu5Ac(a2-3)[GalNAc(b1-4)]Gal(b1-4)Glc
Procedure, shortened: as §1

[56] = target: Neu5Ac(a2-3)[GalNAc(b1-4)]Gal(b1-4)GlcNAc
Procedure, shortened: as §1

[57] = target: Neu5Ac(a2-3)[Neu5Ac(a2-6)]GalNAc
Procedure, shortened: as §1

[58] = target: Neu5Ac(a2-6)Gal
Procedure, shortened: as §1

[59] = target: Neu5Ac(a2-6)Gal(b1-4)Glc
Procedure, shortened: as §1

[60] = target: Neu5Ac(a2-6)Gal(b1-4)GlcNAc
Procedure, shortened: as §1

B1: NESD (Drosophila melanogaster), NP_610025.1 (protein)
chain: MGHHHHHHSSGVDLGTENLYFQSMMEVFTFEKSYLERLKEAEAVLSWEGAVMPASQVRSEWKSYVELKIEPAGWQAIWKIPRVICEDLKLRYPTIVYGYVEQVIFDELKAVFVVTAVQDSDVHLPESNEVSLVELWPTVQQENAALNVDTTAECIDRLRFFYTHVWMPWDKDYDDDRDWVQQHLQARIQLVCDLSKNRLPRPLALHMRTLLAEAKYIQQRLDYLELDLSDAESDDEAVELNDSVAEPARKQSKAGSANGCLNVSSLPVTDLMCLHLRMAIIRSEFEILENPEMRRAYSELQSNSLKRLRCSSGRTRQSEDLLVERNSISHVVTLPGKLQQQLELLKLAQTLVKPESKVQLSNTLQDVLSICQSNDDILLSPGEHTIKFLEHLNDNGSLRGLTQPEAILSPAADLSLLPVVCSSDEDSTLLVIDGDYTLSELVLDCRHVRRGILLRNGTLTMRGCRLLGDGSSSTQEGIVCMPGASVELKSCLIENFAVGVSMRPKSSAELGSVQFKTCKTGLELLEKSASVNLQGSKCSFENCALGILADGFVLGEQRTEKVLVLNKFSELQRYNEDNLLGNCSFYNCKKNVRVFNESGQLLAQRSHQQLLEDELGGENKENIQLV
B1 was tested, and the “glycan array binding signal (z-score)” value [1] was 0.156, the “glycan array binding signal (z-score)” value [2] was -0.17 and the “glycan array binding signal (z-score)” value [3] was -0.174. The “glycan array binding signal (z-score)” value [4] was -0.131, the “glycan array binding signal (z-score)” value [5] was -0.315 and the “glycan array binding signal (z-score)” value [6] was -0.364. The “glycan array binding signal (z-score)” value [7] was -0.316, the “glycan array binding signal (z-score)” value [8] was -0.222 and the “glycan array binding signal (z-score)” value [9] was -0.314. For the same binder, the “glycan array binding signal (z-score)” value [10] was 0.313, the “glycan array binding signal (z-score)” value [11] was -0.638 and the “glycan array binding signal (z-score)” value [12] was -0.442. The “glycan array binding signal (z-score)” value [13] was -0.191, the “glycan array binding signal (z-score)” value [14] was -0.458 and the “glycan array binding signal (z-score)” value [15] was 0.103. The “glycan array binding signal (z-score)” value [16] was -0.415, the “glycan array binding signal (z-score)” value [17] was 0.69 and the “glycan array binding signal (z-score)” value [18] was -0.345. The “glycan array binding signal (z-score)” value [19] was -0.182, the “glycan array binding signal (z-score)” value [20] was -0.027 and the “glycan array binding signal (z-score)” value [21] was 0.178. The “glycan array binding signal (z-score)” value [22] was -0.147, the “glycan array binding signal (z-score)” value [23] was -0.413 and the “glycan array binding signal (z-score)” value [24] was 0.016. For the same binder, the “glycan array binding signal (z-score)” value [25] was -0.127, the “glycan array binding signal (z-score)” value [26] was 0.627 and the “glycan array binding signal (z-score)” value [27] was -0.205. The “glycan array binding signal (z-score)” value [28] was -0.223, the “glycan array binding signal (z-score)” value [29] was 0.17 and the “glycan array binding signal (z-score)” value [30] was -0.357. For the same binder, the “glycan array binding signal (z-score)” value [31] was -0.114, the “glycan array binding signal (z-score)” value [32] was -0.231 and the “glycan array binding signal (z-score)” value [33] was -0.152. For the same binder, the “glycan array binding signal (z-score)” value [34] was -0.277, the “glycan array binding signal (z-score)” value [35] was 0.042 and the “glycan array binding signal (z-score)” value [36] was -0.593. For the same binder, the “glycan array binding signal (z-score)” value [37] was -0.237, the “glycan array binding signal (z-score)” value [38] was 0.025 and the “glycan array binding signal (z-score)” value [39] was -0.571. For the same binder, the “glycan array binding signal (z-score)” value [40] was 0.395, the “glycan array binding signal (z-score)” value [41] was -0.129 and the “glycan array binding signal (z-score)” value [42] was -0.088. For the same binder, the “glycan array binding signal (z-score)” value [43] was -0.732, the “glycan array binding signal (z-score)” value [44] was -0.023 and the “glycan array binding signal (z-score)” value [45] was -0.028. The “glycan array binding signal (z-score)” value [46] was -0.136, the “glycan array binding signal (z-score)” value [47] was 0.005 and the “glycan array binding signal (z-score)” value [48] was -0.689. For the same binder, the “glycan array binding signal (z-score)” value [49] was 0.059, the “glycan array binding signal (z-score)” value [50] was 0.068 and the “glycan array binding signal (z-score)” value [51] was 0.267. The “glycan array binding signal (z-score)” value [52] was 0.691, the “glycan array binding signal (z-score)” value [53] was -0.159 and the “glycan array binding signal (z-score)” value [54] was -0.017. For the same binder, the “glycan array binding signal (z-score)” value [55] was -0.137, the “glycan array binding signal (z-score)” value [56] was -0.191 and the “glycan array binding signal (z-score)” value [57] was -0.323. The “glycan array binding signal (z-score)” value [58] was -0.359, the “glycan array binding signal (z-score)” value [59] was -0.248 and the “glycan array binding signal (z-score)” value [60] was -0.221.
